Measured values reported in paper PMC6919601, “Identification of Plasmodium dipeptidyl aminopeptidase allosteric inhibitors by high throughput screening” (PLoS ONE, 2019).
About 230 (0.21%) of roughly 110,000 compounds showed an effect of 50% or more. This is one part of the list.

molecular target: DPAP1 (Plasmodium falciparum, UniProt Q8IIJ9); test: primary screen, percent inhibition; read by cleavage of a fluorogenic dipeptide substrate; higher = more effect of the substance; parameters: species or system P. falciparum D10 trophozoite lysates; single well
Sequence (Q8IIJ9 whole entry, looked up): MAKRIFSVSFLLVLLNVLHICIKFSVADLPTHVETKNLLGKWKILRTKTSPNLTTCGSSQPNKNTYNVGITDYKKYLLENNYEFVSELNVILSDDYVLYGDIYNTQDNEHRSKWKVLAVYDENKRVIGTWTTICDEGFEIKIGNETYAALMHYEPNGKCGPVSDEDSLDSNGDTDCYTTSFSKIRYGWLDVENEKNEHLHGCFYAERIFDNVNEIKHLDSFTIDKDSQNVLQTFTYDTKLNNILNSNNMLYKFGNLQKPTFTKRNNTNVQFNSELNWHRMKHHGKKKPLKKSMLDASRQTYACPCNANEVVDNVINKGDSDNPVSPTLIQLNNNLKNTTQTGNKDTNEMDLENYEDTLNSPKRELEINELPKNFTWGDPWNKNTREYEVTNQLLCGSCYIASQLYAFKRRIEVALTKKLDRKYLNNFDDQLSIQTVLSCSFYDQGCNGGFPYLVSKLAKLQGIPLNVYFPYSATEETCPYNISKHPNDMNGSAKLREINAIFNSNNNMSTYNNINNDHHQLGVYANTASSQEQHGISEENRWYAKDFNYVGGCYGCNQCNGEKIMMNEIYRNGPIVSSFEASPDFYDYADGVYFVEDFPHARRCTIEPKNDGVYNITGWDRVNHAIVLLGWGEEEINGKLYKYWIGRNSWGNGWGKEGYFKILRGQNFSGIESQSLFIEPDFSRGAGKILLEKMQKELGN
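Also: 30 min substrate incubation versus DMSO and 10 µM JCP410 controls.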

| Structure (SMILES) | % Inhibition @ 10 uM [%] |
| --- | --- |
| CCOC(=O)N1CCC(NC2=NS(=O)(=O)C(c3ccc(C)cc3)=C2C)CC1 | 5.42 |
| COc1ccc(-c2cn3c4c(=O)n(C)c(=O)n(C)c4nc3n2CCCO)cc1 | -2.24 |
| CN1CCN(Cc2cccc3ccccc23)CC1 | -3.65 |
| CCC(C)NC(=O)CN1N=C(c2ccc(C)cc2)CCC1=O (stereo not shown) | 0.514 |
| COCCn1c(=N)c(C(N)=O)cc2c(=O)n3cc(C)ccc3nc21 | 0.279 |
| CC(C)NS(=O)(=O)c1ccc(OCC(=O)NCc2ccncc2)cc1 | -10 |
| c1ccc(NCc2ccc3c(c2)OCO3)cc1 | 0.177 |
| CCOc1ccc(NC(=O)CSC2=C(C#N)C(c3cccs3)CC(=O)N2)cc1 (stereo not shown) | -6.36 |
| CN1C(=O)/C(=C/c2ccc(O)c(O)c2)S/C1=N/c1ccc(Cl)cc1 | -0.545 |
| CCCN1C(=O)c2n[nH]c(C)c2C1c1ccc(O)cc1 (stereo not shown) | -4.67 |
| CCCCOc1ccc(CC(=O)O)cc1 | 4.12 |
| O=C(CCCOc1ccc(Cl)cc1Cl)NCc1ccc2c(c1)OCO2 | 0.231 |
| O=C(c1ccccc1F)N1CCC(Cc2ccccc2)CC1 | 0.162 |
| COc1ccc(-n2nnc(-c3nc(-c4cccs4)no3)c2N)cc1Cl | -1.04 |
| Cc1ccc(/N=C/C2=C(O)CCCC2)c(C)c1 | -4.03 |
| Cc1ccccc1CNC(=O)CSCc1ccccc1 | 0.746 |
| COc1ccc(-c2nc3s/c(=C\c4c(F)cccc4Cl)c(=O)n3n2)cc1OC | 2.24 |
| CCOC(=O)N1CCN(c2c(NCCCc3ccccc3)c(=O)c2=O)CC1 | -3.44 |
| COc1nc(-c2ccccc2)nc(C)c1Cc1ccccc1 | -2.21 |
| COc1ccc2nc(NC(=O)COC(=O)/C=C/c3ccco3)sc2c1 | -2.39 |
| Cc1ccc(C)c(OCCCCCN2CCN(C)CC2)c1C | 4.57 |
| CCC(C(=O)NCCC1=CCCCC1)n1nc(C)c2c(C)n(-c3ccc(C)cc3)nc2c1=O (stereo not shown) | 2.31 |

| Structure (SMILES) | % Inhibition @ 10 uM [%] |
| --- | --- |
| COc1ccccc1/C=C1/S/C(=N\c2ccccc2)N(Cc2cccnc2)C1=O | 0.145 |
| CCN1CCN(CCCNC(=O)C2CCCN(C(=O)c3cc4sccc4n3CC)C2)CC1 (stereo not shown) | 1.16 |
| Cc1ccc(-c2noc(CCCC(=O)N(C)C)n2)cc1 | 0.558 |
| CN(Cc1c[nH]c2ccccc12)Cc1c[nH]c2ccccc12 | 0.605 |
| COc1cccc(C2C(C(=O)N(C)C)=C(C)Nc3nc4ccccc4n32)c1OC (stereo not shown) | -5.43 |
| Fc1ccccc1/C=C1\CCCC2=C1Nc1ncnn1C2c1ccccc1F (stereo not shown) | -3.37 |
| CC(=O)NS(=O)(=O)c1ccc(NC(=O)COc2ccc3ccccc3c2Br)cc1 | -0.68 |
| COc1ccccc1C1C(C#N)=C(N)N(c2nc[nH]n2)C2=C1C(=O)CC(C)(C)C2 (stereo not shown) | 0.726 |
| Cc1c(C(=O)NCCCN2CCN(C)CC2)oc2ccc3c(c12)C(O)CC1(CCCCCC1)O3 (stereo not shown) | 4.64 |
| COc1ccc(-c2noc(CC(=O)N3CCN(C)CC3)n2)cc1 | 1.13 |
| CC(CCc1ccccc1)NCc1ccco1 (stereo not shown) | -1.81 |
| COc1ccc(C)cc1NC(=O)c1c(-c2ccccc2)noc1C | -3.24 |
| O=C(/C=C/c1ccccc1)Nc1sc2c(c1C(=O)O)CCCC2 | -1.05 |
| COC1Cc2ccccc2N(C(N)=O)c2ccccc21 (stereo not shown) | -1.82 |
| Cc1cc(C)nc(Nc2nc(C)c3cccc(C)c3n2)n1 | 2.3 |
| CC1CCCCN1C(=O)c1ccc(C(=O)N2CCCCC2C)cc1 (stereo not shown) | -6.27 |
| CCN1CCCC1CNC(=O)C1c2cc(OC)c(OC)cc2C(=O)N(C)C1c1cccnc1 (stereo not shown) | -3.9 |
| CCOC(=O)C1CCCN(Cc2ccc(Cl)cc2Cl)C1 (stereo not shown) | -1.86 |
| COc1ccc(/C=C2/SC(Nc3ccccc3Cl)=NC2=O)c(OC)c1OC | -0.487 |
| CC(=O)C1=C(O)C(=O)N(CCc2c[nH]c3ccccc23)C1c1cccnc1 (stereo not shown) | -3.71 |
| COc1ccc(/C=C2\CSC/C(=C/c3ccc(OC)cc3)C2=O)cc1 | -3.96 |
| O=C1CNC(=O)/C1=C\c1ccc(O)cc1 | 2.17 |

| Structure (SMILES) | % Inhibition @ 10 uM [%] |
| --- | --- |
| CC12COc3ccc(Br)cc3C1c1sc(O)nc1SC2 (stereo not shown) | 38.8 |
| Cc1cc(NC(=O)c2cc3ccc4cccnc4c3[nH]2)no1 | 6.05 |
| CC(=O)Nc1ccc(C2C(C#N)=C(N)Oc3[nH]nc(-c4ccc(C)cc4)c32)cc1 (stereo not shown) | 1.03 |
| Cc1onc(-c2ccccc2Cl)c1C(=O)NCc1ccc2c(c1)OCO2 | -6.92 |
| Cc1nnc(SCc2nnnn2-c2ccccc2)nc1O | -3.23 |
| O=C(Nc1nnc(-c2ccc(Cl)cc2Cl)s1)c1ccc(S(=O)(=O)N2CCCC2)cc1 | -0.769 |
| N#C/C(=C\c1c(Oc2ccccc2)nc2ccccn2c1=O)C(=O)NCc1ccccc1 | -6.37 |
| CN(Cc1ccccc1)S(=O)(=O)c1ccc(NC(=O)c2ccco2)cc1 | 4.25 |
| CCOC(=O)c1cnc(SCC(N)=O)nc1N | 0.558 |
| Cc1ccc(C(=O)N/C(=C\c2ccco2)C(=O)N2CC(C)OC(C)C2)cc1C (stereo not shown) | -2.88 |
| CC1CCN(S(=O)(=O)c2ccc3nc(-c4cccnc4)cc(C(=O)NCC4CCCO4)c3c2)CC1 (stereo not shown) | -0.971 |
| COc1ccccc1C(=O)Nc1ccccc1F | 7.48 |
| COc1cccc(C(=O)Nc2nc(C(F)(F)F)c(-c3ccccn3)s2)c1 | -0.597 |
| NC(=O)C1CCN(c2c(S(=O)(=O)c3ccccc3)cnc3ccc(F)cc23)CC1 | -5.03 |
| O=C1CC(NCc2ccco2)C(=O)N1c1ccc(F)cc1 (stereo not shown) | 3.24 |
| CSCCC(C(=O)N1CCCCC1)N1C(=O)C2C3c4ccccc4C(c4ccccc43)C2C1=O (stereo not shown) | -3.28 |
| CC1=C(C#N)C(=O)N(C)C(=O)/C1=C\Nc1ccc(C)c(CN2C(=O)c3ccccc3C2=O)c1 | -0.941 |
| COc1ccc(CCNS(=O)(=O)c2ccc(OC)c(Cl)c2Cl)cc1OC | 4.57 |
| N#Cc1ccc(NC(=O)C2CC=CCC2C(=O)O)cc1 (stereo not shown) | 1.62 |
| O=C(O)C1CCCCC1C(=O)Nc1ccc(Oc2ccccc2)cc1 (stereo not shown) | 2.05 |
